Data: publication PMC5892938
The other results are listed elsewhere or left out. At the low end of the ranking the order means little.

These sequences were tested against GST-SBP-SLBP (stem-loop binding protein) (UniProt Q14493) (assay: targeted RNA Bind-n-Seq). Conditions: RBNS binding buffer: 25 mM Tris pH 7.5, 150 mM KCl, 3 mM MgCl2, 0.1% Tween, 0.5 mg/mL BSA, 1 mM DTT; 27 nM protein, 750 pM RNA pool; temperature not stated; high values mean tight binding.
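Note: DESeq read counts versus GST-SBP nonspecific binding control pulldown.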

Sequence | binding signal (log2 fold change)
GGUCACGUCUCAAUCAACUCAAUUUCAGGAGUUUACUCCUGCUAAUUCAACAGCUCGCAGUCAAG | -0.0775
GGUCACGUCUCAAUCAACUCUUUCCCCAGGGAAAUCCCUGGUUAUUUCAACAGCUCGCAGUCAAG | -0.185
GGUCACGUCUCAAUCAACUCAGUCUCAGGAGUUUCCUCCUGUUUUUUCAACAGCUCGCAGUCAAG | 0.135
GGUCACGUCUCAAUCAACUCUUCUUCAGGAGUUUACUCCUGCUAUCUCAACAGCUCGCAGUCAAG | 0.209
GGUCACGUCUCAAUCAACUCUUUAGAGGGGGGGAAAACCCCUUUACCCUCGAUAUCAACAGCUCGCAGUCAAG | 0.336
GGUCACGUCUCAAUCAACUCUUUUUCAGGAGUUUUCUCCUGCUAAUUCAACAGCUCGCAGUCAAG | 0.18
GGUCACGUCUCAAUCAACUCAUUUCCCAGGGAAAUCCCUGGCAUUUUCAACAGCUCGCAGUCAAG | 0.236
GGUCACGUCUCAAUCAACUCAAUGUCAGGAGUUUACUCCUGUUUUUUCAACAGCUCGCAGUCAAG | 0.164
GGUCACGUCUCAAUCAACUCAACUCCCAGGGAAAUCCCUGGUUUACUCAACAGCUCGCAGUCAAG | 0.248
GGUCACGUCUCAAUCAACUCUUCCUCCAGGGAAAUCCCUGGUUAUUUCAACAGCUCGCAGUCAAG | -0.292
GGUCACGUCUCAAUCAACUCUUCCUCCAGGGAAAACCCUGGCUAUGUCAACAGCUCGCAGUCAAG | 0.183
GGUCACGUCUCAAUCAACUCUUCCCCAGGAGUUUUCUCCUGCUAAUUCAACAGCUCGCAGUCAAG | 0.0161
GGUCACGUCUCAAUCAACUCACAAGAGGGGGGGAAAACCCCUUUGCCCUCCAUUUCAACAGCUCGCAGUCAAG | -0.142
GGUCACGUCUCAAUCAACUCAAUCUCAGGAGUUUCCUCCUGUAAAGUCAACAGCUCGCAGUCAAG | 0.042
GGUCACGUCUCAAUCAACUCCAAAGAGGGGGGGAAAACCCCUUUGCCCUCACUUUCAACAGCUCGCAGUCAAG | 0.0464
GGUCACGUCUCAAUCAACUCAAGUCCAGGAGUUUCCUCCUGCAAUCUCAACAGCUCGCAGUCAAG | 0.0474
GGUCACGUCUCAAUCAACUCAAUCCCCAGGGAAAUCCCUGGUAUAUUCAACAGCUCGCAGUCAAG | -0.0896
GGUCACGUCUCAAUCAACUCAUUCGCAGGAGUUUUCUCCUGGUUAUUCAACAGCUCGCAGUCAAG | 0.0602
GGUCACGUCUCAAUCAACUCAUCCCCCAGGGAAAACCCUGGUUUUCUCAACAGCUCGCAGUCAAG | -0.18
GGUCACGUCUCAAUCAACUCUUCCGCAGGAGUUUACUCCUGGUAAUUCAACAGCUCGCAGUCAAG | -0.145
GGUCACGUCUCAAUCAACUCUUCUCCCAGGGAAAGCCCUGGCAUUUUCAACAGCUCGCAGUCAAG | 0.286
